From paper PMC4877375 come the findings set out here.

To fix the notation:
T1: full length Gyp6p (two-hybrid fusion) (yeast) (UniProt P32806)
T1 sequence: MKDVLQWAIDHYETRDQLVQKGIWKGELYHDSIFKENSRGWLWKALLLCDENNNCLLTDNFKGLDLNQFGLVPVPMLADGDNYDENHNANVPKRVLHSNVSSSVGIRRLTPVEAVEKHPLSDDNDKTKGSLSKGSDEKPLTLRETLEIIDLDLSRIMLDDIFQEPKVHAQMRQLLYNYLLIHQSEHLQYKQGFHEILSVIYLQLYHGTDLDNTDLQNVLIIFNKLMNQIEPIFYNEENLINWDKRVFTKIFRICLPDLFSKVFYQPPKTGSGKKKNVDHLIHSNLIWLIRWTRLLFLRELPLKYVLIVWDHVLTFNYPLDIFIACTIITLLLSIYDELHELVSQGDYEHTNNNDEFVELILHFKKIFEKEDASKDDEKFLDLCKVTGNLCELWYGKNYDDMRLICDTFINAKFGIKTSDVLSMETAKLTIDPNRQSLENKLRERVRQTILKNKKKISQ

B1: TRS33 (two-hybrid fusion) (protein, UniProt Q99394 1-268)
chain: MSSTHSNNVGHPQSSPQGPLTEQQRAQQQYQIFENSLPKVSQSVYQMLLNEMVPLAMGIERQISGDVISSDSNVTSENGNINNMIKRLKIEEHHTVDIIRSHNLIHELYKADEEEKEKVLARLRNIGFQIGLKLSELLIFSNNPNLKFKEMDLLLIMKFICRDVWKQIFGKQIDNLKTNHRGTFYLLDYDYRPIQSFSLEEDAKNEELKMIEPFLEIPVGIIRGVLSSLGYSSEEVICLASFIDRPTDRPKTAFPKGVSFHVQVTMPQ
B2: Trs130p lacking the carboxy-terminal 50 amino acids (two-hybrid fusion) (domain or fragment, UniProt Q03660 1-1052)
chain: MDKEIYCGSVPVSYFDPFDLFESLRPEFQQILPLDNIHWKAFDGTVRTVNRLPIELIPEGRGEADKSNDEQPFIRFLIVNCISIDQYRAKVRPLVRQWLPNLESVSSSTGEKMIYKPIILLYANSEVVDSNLFKSVSLMEKFGKDFPHVQTLEVRSVYRSPKERQEFWNQFSQKIKASVLSIFQKRLTHLQHSLANLQKGNNFEEQLLTREKLYELYVVFNILEDASLELQKIKKEILRRNMNMPDGKLQVPFESSSKSDESLGSIIIEGTLDKFQLHKYFFIRRLRLLKLEDQTLTAFVGAFQLIKNFIESISIEYRKSVRLLEFKHYFITSMLSYFEFENVSNPLLCEIKAELLMLKRDNWVQGVMATSGYRLMDKNYPNSDVKYKFDLLKETFVDETVFQENFLTLTKEILSLFNKCEGKRQRIVDILSIEIGLLYYQGKKYEEAVSLFLSCYEYYTQTNWNSIGLKILQVFIDSLSHCPKLDVLQIDGESVSASAVLTNAFLNILKLCKDNDSKEIWWKKFMDLQMKNNIHLMYPLDGLFEVTLNSKVHLARANVSAIEVNLKSYGFPEDISTKTMRLSLKNMGGDVIVFGASDFLLKKGENKLILECRDIMYGEFSLLSFEIIVEGITFVKEFPENQDEFIVVPEIYCKESTKVLVKQAHNLNLGEYALELKSVQSDALESLQVEVEVQKNIGNMKNLPVSFSMDEIQARKRYNTPFENVRLEYYLLDQITAFDLIIKTSFTKKNDQGTFGETKKVRIQCYLQLSVSVEDIFKKDIFFFKFLLNSSVREEPVILYSSELSAPDTRNDYNIRGDYIATTPALITFDGNESFINCYEITANNNFDSKDIFNLKVRYNTLKEQLDCFITDAVLIEGDVEWFILFEKWKTFWELEILKKLKYDYDAFKENRIIRLLKTSIDLNKTKSKIRNLCIEKAVLDKILICLNKVSRGIAVCNTDMDEYVRNLVPKQLTVPVQLPGFEQFFHVQFEQMETSHDALHDTIATIGNSLSYTVIVENLSGQWGQDVIDDGGYIFEILSSNEWLIHGQKRC
B3: TRS23 (two-hybrid fusion) (protein, UniProt Q03784 1-219)
chain: MAIETILVINKSGGLIYQRNFTNDEQKLNSNEYLILASTLHGVFAIASQLTPKALQLTQQTNIENTIPYIPYVGMSSNRSDTRNGGGNNNKHTNNEKLGSFKGDDFFKEPFTNWNKSGLRQLCTDQFTMFIYQTLTGLKFVAISSSVMPQRQPTIATTDKPDRPKSTSNLAIQIADNFLRKVYCLYSDYVMKDPSYSMEMPIRSNLFDEKVKKMVENLQ
B4: TRS20 (two-hybrid fusion) (protein, UniProt P38334 1-175)
chain: MPQYFAIIGKKDNPVYEIEFTNAENPQGFPQDLKELNPFILHASLDIVEDLQWQINPTSQLNGNGGNGSNGGGGFLRSRAVNNTDNCYLGKVDHFYGLAITAYISYSGMKFVMIHGNSANSSVVIDDNNMRSFYQEVHELYVKTLMNPFYKITDPIRSPAFDSRVRTLARKHLSK
B5: TRS65 (two-hybrid fusion) (protein, UniProt P32893 1-560)
chain: MECFVPLRCDLDGSNIEQLRQSHLSRKFIIFDEQLNLWLWFQGNSQENKRFVLQNMIILINEAQVTRTSTIDDYFTQVENNENLWRLKNDCCSKILFKSNVVMNNGYNNQIKFVFEYKSVDANFNNQDSLQDPQAKYTLDKYSSEEILPSFEPVYSWSSAATKSSKNTNNHLEKNNRATHRVSSKNSEVHEADVSRNPNTFTLKLQYPIFSLLNMRLRNISLKSEHCILSSLDFQTSKASEQLTKKFIYPQEHNSFLKLNFQEISYKLIDGTSQIELDPICPLKVPLTAFSYDSISATFKLVLLPKSTQPHRVKITLAYELELHPNLKLPVRTSWETEVTLKRSMPISSTSSQYSSNNNNTNHSASFNGAANNVNSGGLANLRLGGVSSSRFSLGAASTTSLVNSKLSNVKFKFINSNIKVIKGEKFTMRLQIINSSSSPLDLVVYYNNTINPIPSANNVRNSNGINNCGMNNGTIPNSPLTLENQYQLHNKYRKIAEGIILLSNDYKIPVVPPRETYFADLRFIGIMSGYYGTLSGLKVLDLNTNELIEVGNGASVLIQ
B6: Trs130p (two-hybrid fusion) (protein, UniProt Q03660 1-1102)
chain: MDKEIYCGSVPVSYFDPFDLFESLRPEFQQILPLDNIHWKAFDGTVRTVNRLPIELIPEGRGEADKSNDEQPFIRFLIVNCISIDQYRAKVRPLVRQWLPNLESVSSSTGEKMIYKPIILLYANSEVVDSNLFKSVSLMEKFGKDFPHVQTLEVRSVYRSPKERQEFWNQFSQKIKASVLSIFQKRLTHLQHSLANLQKGNNFEEQLLTREKLYELYVVFNILEDASLELQKIKKEILRRNMNMPDGKLQVPFESSSKSDESLGSIIIEGTLDKFQLHKYFFIRRLRLLKLEDQTLTAFVGAFQLIKNFIESISIEYRKSVRLLEFKHYFITSMLSYFEFENVSNPLLCEIKAELLMLKRDNWVQGVMATSGYRLMDKNYPNSDVKYKFDLLKETFVDETVFQENFLTLTKEILSLFNKCEGKRQRIVDILSIEIGLLYYQGKKYEEAVSLFLSCYEYYTQTNWNSIGLKILQVFIDSLSHCPKLDVLQIDGESVSASAVLTNAFLNILKLCKDNDSKEIWWKKFMDLQMKNNIHLMYPLDGLFEVTLNSKVHLARANVSAIEVNLKSYGFPEDISTKTMRLSLKNMGGDVIVFGASDFLLKKGENKLILECRDIMYGEFSLLSFEIIVEGITFVKEFPENQDEFIVVPEIYCKESTKVLVKQAHNLNLGEYALELKSVQSDALESLQVEVEVQKNIGNMKNLPVSFSMDEIQARKRYNTPFENVRLEYYLLDQITAFDLIIKTSFTKKNDQGTFGETKKVRIQCYLQLSVSVEDIFKKDIFFFKFLLNSSVREEPVILYSSELSAPDTRNDYNIRGDYIATTPALITFDGNESFINCYEITANNNFDSKDIFNLKVRYNTLKEQLDCFITDAVLIEGDVEWFILFEKWKTFWELEILKKLKYDYDAFKENRIIRLLKTSIDLNKTKSKIRNLCIEKAVLDKILICLNKVSRGIAVCNTDMDEYVRNLVPKQLTVPVQLPGFEQFFHVQFEQMETSHDALHDTIATIGNSLSYTVIVENLSGQWGQDVIDDGGYIFEILSSNEWLIHGQKRCAIKEKRKEFEVHLIPLKKGYLNFPRVEITNINGKSCRVDHSNAFESILIF
B7: TRS31 (two-hybrid fusion) (protein, UniProt Q03337 1-283)
chain: MSQRIIQPSASDQQFPGKSDGYEYTVGPKQAITSEASTTYIPSRIYSESLLFKRQEASLSAMAFLFQEMISQLHRTCKTAGDFETKLSDYGHNIGIRLLELLNFRASVSPSSLPRASAFLSQNESSSKLSNASNSPGMLANSSTATSASANERLQEKQTESLSNYITKMRRRDLKILDILQFIHGTLWSYLFNHVSDDLVKSSERDNEYMIVDNFPTLTQFIPGENVSCEYFVCGIIKGFLFNAGFPCGVTAHRMPQGGHSQRTVYLIQFDRQVLDREGLRFG
B8: BET5 (two-hybrid fusion) (protein, UniProt Q03630 1-159)
chain: MGIYSFWIFDRHCNCIFDREWTLASNSASGTINSKQNEEDAKLLYGMIFSLRSITQKLSKGSVKNDIRSISTGKYRVHTYCTASGLWFVLLSDFKQQSYTQVLQYIYSHIYVKYVSNNLLSPYDFAENENEMRGQGTRKITNRNFISVLESFLAPMVNQ
B9: TRS85 (two-hybrid fusion) (protein, UniProt P46944 1-698)
chain: MVFSYEHYMNLLFHLDNSKETVPPEIAKRIISNAIAPVITVTSTPLFDKHIQETYKVDSLYMLLRFFGGCVSDRDQANEAKVGQHEHEVCDASDSTDSIPKNKNLEVPNLSKKGSRSRSNSLFQRDSTQSQYIRFTRPLGDLIETRDANDMLFNYHSLEVFLDNYLKLVAANTDEMVPHNLLKKSIYHSFFSLAISSTNNLSPYETFNHPILSLIALDISNGEVYEDARDLLVNFKNLNHNTENFPIFMNTNEMLPVFLLCYNDDSQEEFEKCQALAKKLKKQLFVESILLALWKDSFIYDENSVIQLHQPVMSSLEEILFFLQAPTQTTLSLALINSIYDMLDYLVYDLMIPFMKRKVSFWEETILQPRKSLFNGAKFFKKFMNKNPVNGNHQHNSLTRDSQGNEYFASSSSEFLMRKLADWSMMLSDFKTAYSTYESLMDDLDAFPKYLASCIEWCAVSLLMGAQSIVTVKMIKNDINPLIERALATYENCSRIQRGKGKESNSLDVTEPVRSYETRCMILASELFLSLSNTWTSTPYAIQYLETILDECKLGPCSQIMVWERLSDCYNLRVDPRIKHRVGAMKKDAKDTEDLRGEHKYSTDHFTDEDILSEGLTRRRKAAFFRLIAAKKWAEQKQWRQVSWCLKDIESTYSEIKFLHGNGLILSKLKNQLNLKDVDSAPRPSEKNLTRTSVSFIG
B10: TCA17 (two-hybrid fusion) (protein, UniProt P32613 1-152)
chain: MSLRPCFVSLIDESDKPILIYVPNEAENEMNDVLKYNVLSNISLDYFESALVEWHSLDSKPLLKSIFQLEGVSVFAMLIKQTGLKIVIGFEQKSLSGADDEFEAINQIFETVRKIYIRVKCNPLLVSGDEKSIIKSLERKFDELFISTEVEL
B11: BET3 (two-hybrid fusion) (protein, UniProt P36149 1-193)
chain: MVSTTQSRSLKAMGEEIWKNKTEKINTELFTLTYGSIVAQLCQDYERDFNKVNDHLYSMGYNIGCRLIEDFLARTALPRCENLVKTSEVLSKCAFKIFLNITPNITNWSHNKDTFSLILDENPLADFVELPMDAMKSLWYSNILCGVLKGSLEMVQLDCDVWFVSDILRGDSQTEIKVKLNRILKDEIPIGED

Results are given in words; binding and its absence hold for the method and conditions named. Some entries that bind do so weakly or less than the wild type. Tags and fused reporters may be left off the sequences shown.

This test concerns the target T1, full length Gyp6p (two-hybrid fusion) (yeast). Description: two-hybrid; pGADT7 fusions in AH109 mated with pGBKT7 fusions in Y187; growth of diploids on medium without histidine (Figure 1C also without adenine).
On to B1, for which the binding result is reported as “no binding”. The same measure for B2: “no binding”. As for B3, the binding result is “no binding”.

Consider B4, for which the binding result is reported as “no binding”. The result for B5 reads “no binding”. The same measure for B6: “binds”; for B7: “no binding”; for B8: “no binding”.

With B9, the binding entry was “no binding”. The same measure for B10: “no binding”; for B11: “no binding”.
